According to patent publication US10618918B2, “Substituted boronic acids as antimicrobials” (priority 2015, dated 2020):
Like-named read-outs stand apart in the source and are kept apart here. The name of at least one read-out is uncertain.

What was measured:
[1] = test system: ec308 SHV-5; assay: Tigemonam potentiation (MPC@4), strain ec308 SHV-5; type: cell-based; conditions: minimum BLI concentration inhibiting growth with tigemonam 4 μg/mL; tested up to 40 μg/mL
[2] = test system: ec302 TEM-10; assay: Tigemonam potentiation (MPC@4), strain ec302 TEM-10; type: cell-based; conditions: minimum BLI concentration inhibiting growth with tigemonam 4 μg/mL; tested up to 40 μg/mL
[3] = test system: EC1010 CMY-6; assay: Tigemonam potentiation (MPC@4), strain EC1010 CMY-6; type: cell-based; conditions: minimum BLI concentration inhibiting growth with tigemonam 4 μg/mL; tested up to 40 μg/mL
[4] = test system: KP1010 SHV-12; assay: Tigemonam potentiation (MPC@4), strain KP1010 SHV-12; conditions: minimum BLI concentration inhibiting growth with tigemonam 4 μg/mL; tested up to 40 μg/mL
[5] = test system: KP1005 CTX-M-14; assay: Aztreonam potentiation (MPC@4), strain KP1005 CTX-M-14
[6] = test system: KP1009 CTX-M-15; assay: Tigemonam potentiation (MPC@4), strain KP1009 CTX-M-15
[7] = minimum BLI concentration inhibiting growth with aztreonam 4 μg/mL, tested up to 40 μg/mL
[8] = minimum BLI concentration inhibiting growth with tigemonam 4 μg/mL, tested up to 40 μg/mL

`O=C([O-])c1nccc2c1O[B-](O)(O)CC2.[Na+].[Na+]` [Compound 6, DISODIUM; 4,4-DIHYDROXY-5-OXA-8-AZA-4-BORANUIDABICYCLO[4.4.0]DECA-1(6),7,9-TRIENE-7-CARBOXYLATE] was tested, and the “TIG MPC4 SHV-5 ec308” value [1] was “X (X = MPC@4 ≤ 5 μg/mL)”, the “TIG MPC4 TEM-10 ec302” value [2] was “Y (Y = 5 μg/mL < MPC@4 ≤ 20 μg/mL)” and the “TIG MPC4 CMY-6 EC1010” value [3] was “X (X = MPC@4 ≤ 5 μg/mL)”. The “TIG MPC4 SHV-12 KP1010” value [4] was “X (X = MPC@4 ≤ 5 μg/mL)”, the “AZT MPC4 CTX-M-14 KP1005” value [5] was “X (key: X = MPC@4 ≤ 5 μg/mL; Y = 5 μg/mL < MPC@4 ≤ 20 μg/mL; Z = MPC@4 > 20 μg/mL)” and the “TIG MPC4 CTX-M-15 KP1009” value [6] was “X (key: X = MPC@4 ≤ 5 μg/mL; Y = 5 μg/mL < MPC@4 ≤ 20 μg/mL; Z = MPC@4 > 20 μg/mL)”.

`O=C([O-])c1c(O)ccc2c1O[B-](O)(O)CC2.[Na+].[Na+]` [Compound 42, Disodium; 4,4,8-trihydroxy-5-oxa-4-boranuidabicyclo[4.4.0]deca-1(6),7,9-triene-7-carboxylate] was tested, and the “TIG MPC4 SHV-5 ec308” value [1] was “Z (Z = MPC@4 > 20 μg/mL)”, the “TIG MPC4 TEM-10 ec302” value [2] was “Z (Z = MPC@4 > 20 μg/mL)” and the “TIG MPC4 CMY-6 EC1010” value [3] was “X (X = MPC@4 ≤ 5 μg/mL)”. For the same compound, the “TIG MPC4 SHV-12 KP1010” value [4] was “Y (Y = 5 μg/mL < MPC@4 ≤ 20 μg/mL)”, the “AZT MPC4 CTX-M-14 KP1005” value [5, 7] was “Z (Z = MPC@4 > 20 μg/mL)” and the “TIG MPC4 CTX-M-15 KP1009” value [6, 8] was “Z (Z = MPC@4 > 20 μg/mL)”.

With `Nc1nnc(SCc2ccc3c(c2C(=O)[O-])O[B-](O)(O)CC3)s1.[Na+].[Na+]` [Compound 22, Disodium; 8-[(5-amino-1,3,4-thiadiazol-2-yl)sulfanylmethyl]-4,4-dihydroxy-5-oxa-4-boranuidabicyclo[4.4.0]deca-1(6),7,9-triene-7-carboxylate] the “TIG MPC4 SHV-5 ec308” value [1] was “Y (Y = 5 μg/mL < MPC@4 ≤ 20 μg/mL)”, the “TIG MPC4 TEM-10 ec302” value [2] was “Y (Y = 5 μg/mL < MPC@4 ≤ 20 μg/mL)” and the “TIG MPC4 CMY-6 EC1010” value [3] was “X (X = MPC@4 ≤ 5 μg/mL)”. For the same compound, the “TIG MPC4 SHV-12 KP1010” value [4] was “X (X = MPC@4 ≤ 5 μg/mL)”, the “AZT MPC4 CTX-M-14 KP1005” value [5, 7] was “Z (Z = MPC@4 > 20 μg/mL)” and the “TIG MPC4 CTX-M-15 KP1009” value [6, 8] was “Y (Y = 5 μg/mL < MPC@4 ≤ 20 μg/mL)”.

In the case of `O=C([O-])c1c(OCCF)ccc2c1O[B-](O)(O)CC2.[Na+].[Na+]` [Compound 43, Disodium; 8-(2-fluoroethoxy)-4,4-dihydroxy-5-oxa-4-boranuidabicyclo[4.4.0]deca-1(6),7,9-triene-7-carboxylate], the “TIG MPC4 SHV-5 ec308” value [1] is reported as “X (X = MPC@4 ≤ 5 μg/mL)”, the “TIG MPC4 TEM-10 ec302” value [2] is reported as “Y (Y = 5 μg/mL < MPC@4 ≤ 20 μg/mL)” and the “TIG MPC4 CMY-6 EC1010” value [3] is reported as “X (X = MPC@4 ≤ 5 μg/mL)”. The “TIG MPC4 SHV-12 KP1010” value [4] was “X (X = MPC@4 ≤ 5 μg/mL)”, the “AZT MPC4 CTX-M-14 KP1005” value [5, 7] was “X (X = MPC@4 ≤ 5 μg/mL)” and the “TIG MPC4 CTX-M-15 KP1009” value [6, 8] was “X (X = MPC@4 ≤ 5 μg/mL)”.

For `O=C([O-])c1c(OCC#CCO)ccc2c1O[B-](O)(O)CC2.[Na+].[Na+]` [Compound 30, Disodium; 4,4-dihydroxy-8-(4-hydroxybut-2-ynoxy)-5-oxa-4-boranuidabicyclo[4.4.0]deca-1(6),7,9-triene-7-carboxylate], the “TIG MPC4 SHV-5 ec308” value [1] was “Y (Y = 5 μg/mL < MPC@4 ≤ 20 μg/mL)”, the “TIG MPC4 TEM-10 ec302” value [2] was “Y (Y = 5 μg/mL < MPC@4 ≤ 20 μg/mL)” and the “TIG MPC4 CMY-6 EC1010” value [3] was “X (X = MPC@4 ≤ 5 μg/mL)”. For the same compound, the “TIG MPC4 SHV-12 KP1010” value [4] was “X (X = MPC@4 ≤ 5 μg/mL)”, the “AZT MPC4 CTX-M-14 KP1005” value [5, 7] was “Y (Y = 5 μg/mL < MPC@4 ≤ 20 μg/mL)” and the “TIG MPC4 CTX-M-15 KP1009” value [6, 8] was “Y (Y = 5 μg/mL < MPC@4 ≤ 20 μg/mL)”.

`O=C(O)c1c(-n2ccnn2)ccc2c1O[B-](O)(O)CC2` [Compound 13, Disodium; 4,4-dihydroxy-8-(triazol-1-yl)-5-oxa-4-boranuidabicyclo[4.4.0]deca-1(6),7,9-triene-7-carboxylate] was tested, and the “TIG MPC4 SHV-5 ec308” value [1] was “X (X = MPC@4 ≤ 5 μg/mL)”, the “TIG MPC4 TEM-10 ec302” value [2] was “X (X = MPC@4 ≤ 5 μg/mL)” and the “TIG MPC4 CMY-6 EC1010” value [3] was “X (X = MPC@4 ≤ 5 μg/mL)”. The “TIG MPC4 SHV-12 KP1010” value [4] was “X (X = MPC@4 ≤ 5 μg/mL)”, the “AZT MPC4 CTX-M-14 KP1005” value [5, 7] was “X (X = MPC@4 ≤ 5 μg/mL)” and the “TIG MPC4 CTX-M-15 KP1009” value [6, 8] was “X (X = MPC@4 ≤ 5 μg/mL)”.

With `COc1ccc2c(c1C(=O)[O-])O[B-](O)(O)[C@@H](CCO)C2.[Na+].[Na+]` [Compound 12, Disodium; (3R)-4,4-dihydroxy-3-(2-hydroxyethyl)-8-methoxy-5-oxa-4-boranuidabicyclo[4.4.0]deca-1(6),7,9-triene-7-carboxylate] the “TIG MPC4 SHV-5 ec308” value [1] was “Z (Z = MPC@4 > 20 μg/mL)”, the “TIG MPC4 TEM-10 ec302” value [2] was “Z (Z = MPC@4 > 20 μg/mL)” and the “TIG MPC4 CMY-6 EC1010” value [3] was “X (X = MPC@4 ≤ 5 μg/mL)”. For the same compound, the “TIG MPC4 SHV-12 KP1010” value [4] was “Y (Y = 5 μg/mL < MPC@4 ≤ 20 μg/mL)”, the “AZT MPC4 CTX-M-14 KP1005” value [5, 7] was “Z (Z = MPC@4 > 20 μg/mL)” and the “TIG MPC4 CTX-M-15 KP1009” value [6, 8] was “Z (Z = MPC@4 > 20 μg/mL)”.

`O=C(Cc1cccs1)NC1CB(O)Oc2c(C(=O)O)cccc21` (stereo not drawn) [Compound 1, 2-HYDROXY-4-(2-(THIOPHEN-2-YL)ACETAMIDO)-3,4-DIHYDRO-2H-BENZO[E][1,2]OXABORININE-8-CARBOXYLIC ACID] was tested, and the “TIG MPC4 SHV-5 ec308” value [1] was “X (X = MPC@4 ≤ 5 μg/mL)”, the “TIG MPC4 TEM-10 ec302” value [2] was “Y (Y = 5 μg/mL < MPC@4 ≤ 20 μg/mL)” and the “TIG MPC4 CMY-6 EC1010” value [3] was “X (X = MPC@4 ≤ 5 μg/mL)”. The “TIG MPC4 SHV-12 KP1010” value [4] was “X (X = MPC@4 ≤ 5 μg/mL)”, the “AZT MPC4 CTX-M-14 KP1005” value [5, 7] was “X (X = MPC@4 ≤ 5 μg/mL)” and the “TIG MPC4 CTX-M-15 KP1009” value [6, 8] was “X (X = MPC@4 ≤ 5 μg/mL)”.
